According to patent publication US20230416345A1, “NEW TYPE II COLLAGEN BINDING PROTEINS” (Navigo Proteins GmbH, priority 2020, published 2023):

Assays:
human collagen type III = target: T1, human collagen type III (Homo sapiens, UniProt P02461); assay: ELISA specificity vs human collagen type III; format: binding
T1 construct: purchased Abcam ab7535
T1 sequence (P02461 154-1221 limits assumed): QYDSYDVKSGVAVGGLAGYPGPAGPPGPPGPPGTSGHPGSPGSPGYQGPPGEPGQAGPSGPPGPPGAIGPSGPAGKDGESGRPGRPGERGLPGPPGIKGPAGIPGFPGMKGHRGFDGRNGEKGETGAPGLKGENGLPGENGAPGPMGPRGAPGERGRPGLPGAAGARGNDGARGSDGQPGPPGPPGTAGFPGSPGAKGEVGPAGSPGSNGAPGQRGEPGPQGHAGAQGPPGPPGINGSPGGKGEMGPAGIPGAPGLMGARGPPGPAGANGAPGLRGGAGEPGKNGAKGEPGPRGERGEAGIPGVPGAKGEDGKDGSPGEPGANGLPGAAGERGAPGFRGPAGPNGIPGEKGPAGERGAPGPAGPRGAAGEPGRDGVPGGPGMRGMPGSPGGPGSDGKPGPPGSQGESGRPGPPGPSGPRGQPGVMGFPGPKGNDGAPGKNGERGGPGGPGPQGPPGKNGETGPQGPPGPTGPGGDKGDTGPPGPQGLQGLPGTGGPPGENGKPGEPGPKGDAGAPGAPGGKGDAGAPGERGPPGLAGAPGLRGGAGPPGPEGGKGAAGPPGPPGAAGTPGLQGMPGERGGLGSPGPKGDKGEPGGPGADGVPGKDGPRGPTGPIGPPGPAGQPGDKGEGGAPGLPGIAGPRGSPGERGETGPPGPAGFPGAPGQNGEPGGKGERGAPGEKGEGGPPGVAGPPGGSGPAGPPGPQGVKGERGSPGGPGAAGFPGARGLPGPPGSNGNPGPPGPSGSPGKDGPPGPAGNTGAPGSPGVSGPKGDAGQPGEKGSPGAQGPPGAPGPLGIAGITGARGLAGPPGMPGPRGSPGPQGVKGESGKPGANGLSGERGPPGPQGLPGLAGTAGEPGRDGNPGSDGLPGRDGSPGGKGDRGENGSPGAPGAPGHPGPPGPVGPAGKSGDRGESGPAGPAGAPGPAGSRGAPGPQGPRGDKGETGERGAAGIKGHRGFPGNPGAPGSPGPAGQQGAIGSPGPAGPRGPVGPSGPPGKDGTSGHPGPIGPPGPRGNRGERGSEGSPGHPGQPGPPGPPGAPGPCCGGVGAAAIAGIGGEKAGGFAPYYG
Protocol: (§1) High binding plates (Greiner, 781061) were immobilized with 2.5 μg/ml recombinant human collagen type II (h Col II, Chondrex, CHX-20051), rabbit collagen type II (rbCol II, prepared from rabbit eyes), porcine collagen type II (p Col II, prepared from porcine eyes), human collagen type I, (h Col I, Sigma, C5483-1MG), human collagen type V (h Col V, Abcam, ab7537), human collagen type III (h Col Ill, Abcam, ab7535) and 67B89 (domain of fibronectin, produced in E. coli) respectively over night at 4° C. ELISA-plates were washed 3 times with PBST (PBS+ 0.1% Tween) and blocked with 3% BSA/0.5% Tween/PBS 2 h at RT. After washing with PBST, dilution series of 1.1 μM to 7×10^−4 nM of dimers (CID 211999, CID 212000), dilution series of 100 nM to 7×10^−6 nM of tetramers (CID 212001 and CID 212704) and dilution series of 10 μM to 2 nM of dimer (CID 212705) were incubated on ELISA-plates 1 h at rt. Plates were washed with PBST and incubated with biotinylated anti-StrepTag-ab (Antikörper-online, ABIN1573895) with a dilution of 1:10.000 for 1 h at rt. The binding was visualized with a-rabbit-IgG-HRP (Sigma, A9169) with a dilution of 1:10.000 and as substrate TMB Plus von KEM EN TEC Diagnostic, Kat-Nr. 4395.

[1] = Soluble expression in Escherichia coli BL21(DE3); format: physicochemical; settings: expression in E. coli BL21(DE3)
Protocol: Variants with affinity tag were expressed in Escherichia coli BL21(DE3) using a low copy plasmid system under regulation of a T7 promoter. Proteins were produced in soluble form after induction by lactose included in the medium (autoinduction medium). BL21 (DE3) competent cells were transformed with the expression plasmid, spread onto selective agar plates (kanamycin) and incubated overnight at 37° C. Precultures were inoculated from single colony in 3 ml 2×YT medium supplemented with 50 μg/ml kanamycin and cultured for 6 hours at 37° C. at 200 rpm in a conventional orbital shaker in culture tubes. […] Cultures were transferred to an orbital shaker and incubated at 30° C. and 200 rpm. Recombinant protein expression was induced by metabolizing glucose and subsequently allowing lactose to enter the cells. Cells were grown overnight for approx. 17 hours to reach a final OD600 of about 2-4. Before the harvest, the OD600 was measured, samples adjusted to 0.6/OD600 were withdrawn, pelleted and frozen at −20° C. To collect biomass cells were centrifuged at 12000×g for 15 min at 22° C. Pellets were weighed (wet weight). Cells were stored at −20° C. before processing.
(§2) Proteins with affinity tag were purified by affinity chromatography and size exclusion. After affinity chromatography purification using Strep-Tactin Superflow high capacity cartridges (IBA Lifesciences) a size exclusion chromatography (SEC) was performed using an Äkta system and a Superdex™ 200 HiLoad 16/600 column (Cytiva). Fused variants with Aflibercept were purified via MabSelect SuRe (Cytiva) affinity chromatography followed by a size exclusion chromatography (SEC) using an Äkta system and a Superdex™ 200 HiLoad 16/600 column (Cytiva). All chromatography processing steps were carried out on AKTA systems using matrices from Cytiva. Homogenous species of all purified ligands were obtained; no aggregation was detected. Following SOS-PAGE analysis positive fractions were pooled and their protein concentrations were measured. Further analysis included SOS-PAGE, SE-HPLC and RP-HPLC. Protein concentrations were determined by absorbance measurement at 280 nm using the molar absorbent coefficient. Reversed phase chromatography (RP-HPLC) was performed using a Dionex HPLC system and a PLRP-S (5 μm, 300 Å) column (Agilent). Analytic size exclusion chromatography (SE-HPLC) was performed using a Dionex HPLC system and a Superdex200 increase 5/150 GL (Cytiva). Binding of Collagen II was evaluated by SPR measurements using a Biacore 3000 system. Purified Collagen II was obtained from Chondrex.inc and VEGF-165 was obtained from Millipore. Targets were immobilized on a CM5-Sensor via NHS/EDC chemistry (immobilization level ˜1000 RU). Binding molecules were injected at different concentration and affinity was calculated by langmuir 1:1 binding model.

[2] = target: T2, recombinant human collagen type II (h Col II) (Homo sapiens, UniProt P02458); assay: KD-determination by ELISA vs human collagen type II; format: binding; settings: type II collagen; tetramers: of different species
T2 construct: purchased Chondrex CHX-20051
Protocol: as §1

[3] = target: T3, human collagen type I (h Col I) (Homo sapiens, UniProt P02452+P08123); assay: ELISA specificity vs human collagen type I; format: binding
T3 construct: purchased Sigma C5483-1MG
Protocol: as §1

[4] = target: T4, hCol2 (human Type II collagen) (Homo sapiens, UniProt P02458); assay: Binding analysis by SPR (Biacore 3000) vs human type II collagen; settings: dimers or tetramers; Langmuir 1:1 model
T4 construct: purchased Chondrex
Protocol: as §2, with “Analytic size exclusion chromatography (SE-HPLC) was performed using a Dionex HPLC system and a Superdex200 increase 5/150 GL (Cytiva).” left out, “Purified Collagen II was obtained from Chondrex.inc and VEGF-165 was obtained from Millipore. Targets were immobilized on a CM5-Sensor via NHS/EDC chemistry (immobilization level ˜1000 RU).” left out, “model. […]” for “model.”

[5] = target: T5, 67B89 (domain of fibronectin) (Homo sapiens, UniProt P02751); assay: ELISA specificity vs 67B89; format: binding
T5 construct: unrelated fibronectin domain EDB (67B89) could be observed; made in house; host or cells: E. coli
Protocol: as §1

[6] = target: T6, human collagen type V (h Col V) (Homo sapiens, UniProt P05997+P20908); assay: ELISA specificity vs human collagen type V; format: binding
T6 construct: purchased Abcam ab7537
Protocol: as §1

T3 sequence (P02452 162-1218 limits assumed): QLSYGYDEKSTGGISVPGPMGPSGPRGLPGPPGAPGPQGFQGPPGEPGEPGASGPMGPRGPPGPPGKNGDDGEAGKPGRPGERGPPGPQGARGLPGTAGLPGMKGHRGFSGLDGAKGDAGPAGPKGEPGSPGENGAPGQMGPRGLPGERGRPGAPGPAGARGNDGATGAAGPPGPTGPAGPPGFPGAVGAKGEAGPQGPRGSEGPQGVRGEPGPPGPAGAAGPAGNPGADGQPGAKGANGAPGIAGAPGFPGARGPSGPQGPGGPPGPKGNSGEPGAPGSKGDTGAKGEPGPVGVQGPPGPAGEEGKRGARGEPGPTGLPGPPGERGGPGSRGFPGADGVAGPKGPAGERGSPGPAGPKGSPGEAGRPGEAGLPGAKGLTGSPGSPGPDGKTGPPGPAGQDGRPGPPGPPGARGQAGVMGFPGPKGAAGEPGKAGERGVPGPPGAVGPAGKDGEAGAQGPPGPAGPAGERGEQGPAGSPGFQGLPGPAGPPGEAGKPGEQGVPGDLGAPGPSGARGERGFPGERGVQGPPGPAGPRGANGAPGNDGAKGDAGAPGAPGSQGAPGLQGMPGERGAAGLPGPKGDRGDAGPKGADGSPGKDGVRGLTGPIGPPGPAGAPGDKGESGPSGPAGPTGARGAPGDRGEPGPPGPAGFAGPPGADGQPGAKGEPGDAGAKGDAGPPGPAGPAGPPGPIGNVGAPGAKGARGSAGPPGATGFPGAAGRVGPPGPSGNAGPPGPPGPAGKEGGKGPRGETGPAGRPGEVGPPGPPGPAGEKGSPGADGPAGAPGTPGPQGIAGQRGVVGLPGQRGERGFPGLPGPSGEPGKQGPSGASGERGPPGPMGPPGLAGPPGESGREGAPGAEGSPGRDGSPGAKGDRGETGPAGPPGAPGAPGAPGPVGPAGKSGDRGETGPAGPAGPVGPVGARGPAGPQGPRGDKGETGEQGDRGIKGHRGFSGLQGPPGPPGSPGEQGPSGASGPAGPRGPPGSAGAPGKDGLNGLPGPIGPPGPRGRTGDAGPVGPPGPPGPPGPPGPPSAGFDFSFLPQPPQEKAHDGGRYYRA
T3 sequence (P08123 80-1119 limits assumed): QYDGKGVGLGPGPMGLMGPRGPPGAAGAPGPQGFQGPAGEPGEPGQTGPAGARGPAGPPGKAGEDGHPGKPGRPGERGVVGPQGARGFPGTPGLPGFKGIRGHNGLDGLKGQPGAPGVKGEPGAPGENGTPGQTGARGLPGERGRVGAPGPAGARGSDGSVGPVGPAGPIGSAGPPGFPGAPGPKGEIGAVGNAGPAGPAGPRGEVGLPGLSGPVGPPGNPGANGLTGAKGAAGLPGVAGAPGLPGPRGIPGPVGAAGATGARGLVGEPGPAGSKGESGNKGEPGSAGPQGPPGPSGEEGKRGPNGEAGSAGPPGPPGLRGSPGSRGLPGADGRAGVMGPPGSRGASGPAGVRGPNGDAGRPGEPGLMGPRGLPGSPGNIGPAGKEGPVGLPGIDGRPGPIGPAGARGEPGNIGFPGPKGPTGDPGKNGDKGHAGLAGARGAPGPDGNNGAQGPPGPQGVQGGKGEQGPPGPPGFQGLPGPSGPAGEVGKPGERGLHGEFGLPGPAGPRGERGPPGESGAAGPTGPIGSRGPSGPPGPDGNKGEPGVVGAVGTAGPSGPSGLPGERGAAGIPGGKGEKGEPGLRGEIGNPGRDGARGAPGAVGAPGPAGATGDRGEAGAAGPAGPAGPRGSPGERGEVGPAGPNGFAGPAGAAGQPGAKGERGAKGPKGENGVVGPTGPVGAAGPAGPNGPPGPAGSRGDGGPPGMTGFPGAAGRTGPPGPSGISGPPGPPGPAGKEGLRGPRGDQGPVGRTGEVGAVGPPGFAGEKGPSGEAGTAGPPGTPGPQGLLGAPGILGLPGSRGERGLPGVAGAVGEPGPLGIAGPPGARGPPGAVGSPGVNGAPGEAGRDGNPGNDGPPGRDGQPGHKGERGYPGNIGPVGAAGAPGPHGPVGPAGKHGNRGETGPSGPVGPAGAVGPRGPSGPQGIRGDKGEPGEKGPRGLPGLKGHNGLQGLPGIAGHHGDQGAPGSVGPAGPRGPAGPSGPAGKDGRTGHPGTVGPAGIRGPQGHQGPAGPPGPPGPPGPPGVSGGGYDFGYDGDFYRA
T4 sequence (P02458 182-1241): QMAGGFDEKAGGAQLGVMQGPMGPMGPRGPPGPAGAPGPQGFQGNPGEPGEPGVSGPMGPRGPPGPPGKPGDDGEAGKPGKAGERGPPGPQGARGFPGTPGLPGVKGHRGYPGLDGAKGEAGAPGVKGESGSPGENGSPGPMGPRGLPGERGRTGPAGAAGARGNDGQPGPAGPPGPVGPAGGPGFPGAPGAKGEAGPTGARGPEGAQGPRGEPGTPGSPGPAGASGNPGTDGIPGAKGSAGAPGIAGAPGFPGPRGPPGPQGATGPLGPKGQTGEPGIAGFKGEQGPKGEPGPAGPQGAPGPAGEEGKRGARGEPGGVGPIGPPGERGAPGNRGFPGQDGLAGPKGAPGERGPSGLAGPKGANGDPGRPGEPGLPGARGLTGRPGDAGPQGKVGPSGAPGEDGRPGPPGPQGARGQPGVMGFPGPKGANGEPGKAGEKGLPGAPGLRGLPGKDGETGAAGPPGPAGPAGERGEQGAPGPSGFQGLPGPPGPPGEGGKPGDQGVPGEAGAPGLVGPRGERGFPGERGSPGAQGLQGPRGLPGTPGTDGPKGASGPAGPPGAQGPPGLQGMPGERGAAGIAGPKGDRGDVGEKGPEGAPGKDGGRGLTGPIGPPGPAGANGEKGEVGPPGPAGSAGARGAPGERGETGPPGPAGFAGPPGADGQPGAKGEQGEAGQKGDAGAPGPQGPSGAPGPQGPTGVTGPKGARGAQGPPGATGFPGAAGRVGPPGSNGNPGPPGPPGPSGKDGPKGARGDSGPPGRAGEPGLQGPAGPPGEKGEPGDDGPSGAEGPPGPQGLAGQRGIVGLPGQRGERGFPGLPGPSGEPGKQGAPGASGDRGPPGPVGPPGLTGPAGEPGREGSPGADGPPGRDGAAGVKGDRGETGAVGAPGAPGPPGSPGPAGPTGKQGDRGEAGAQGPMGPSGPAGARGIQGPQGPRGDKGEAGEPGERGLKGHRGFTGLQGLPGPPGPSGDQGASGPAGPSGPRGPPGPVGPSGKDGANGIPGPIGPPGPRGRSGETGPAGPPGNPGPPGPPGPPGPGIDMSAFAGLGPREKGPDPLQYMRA
T2 sequence (P02458 182-1241): as above
T5 sequence (P02751 1089-1540 limits assumed): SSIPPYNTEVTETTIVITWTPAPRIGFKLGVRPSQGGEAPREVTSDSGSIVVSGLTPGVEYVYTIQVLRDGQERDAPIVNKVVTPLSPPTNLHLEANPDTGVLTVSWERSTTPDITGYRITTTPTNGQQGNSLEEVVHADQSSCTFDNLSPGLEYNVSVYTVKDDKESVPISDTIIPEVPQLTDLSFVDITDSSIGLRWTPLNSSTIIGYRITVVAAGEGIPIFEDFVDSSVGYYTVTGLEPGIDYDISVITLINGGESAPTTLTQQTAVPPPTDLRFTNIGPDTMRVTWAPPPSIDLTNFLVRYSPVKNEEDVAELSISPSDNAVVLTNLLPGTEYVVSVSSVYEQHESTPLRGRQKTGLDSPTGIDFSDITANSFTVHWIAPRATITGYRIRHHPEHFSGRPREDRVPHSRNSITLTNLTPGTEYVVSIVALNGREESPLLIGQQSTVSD

B1: CID 212704: tetramer of SEQ ID NO: 15 (protein)
chain: IAAKFDEAQQAADKEILHLPNLTEQQRNYFRQWLRDDPSVSPTVLGTAQQLNDSQAPKIAAKFDEAQQAADKEILHLPNLTEQQRNYFRQWLRDDPSVSPTVLGTAQQLNDSQAPKGGGSIAAKFDEAQQAADKEILHLPNLTEQQRNYFRQWLRDDPSVSPTVLGTAQQLNDSQAPKIAAKFDEAQQAADKEILHLPNLTEQQRNYFRQWLRDDPSVSPTVLGTAQQLNDSQAPKSAWSHPQFEK
modifications: Col2 binding protein (tetramer of SEQ ID NO: 15) (CID212704)
Human collagen type III
  binding to type III collagen (ELISA): No unspecific binding
[1]
  Solubility Soluble expression: 100%
[2]
  binding affinity (KD) to type II collagen by ELISA, in words: 3 digit-picomolar
[3]
  binding to type I collagen (ELISA): No unspecific binding
[4]
  Affinity [SPR] vs hCol2: 0.66 nM
[5]
  binding to domain of fibronectin (67B89) (ELISA): No unspecific binding
[6]
  binding to type V collagen (ELISA): No unspecific binding
